The text below walks through data of the RNAGym collection of RNA variant scans (doi:10.7554/elife.90254).

Read counts are not given, so values of variants with three or more changes are uncertain.

B1: OR4K15 (parent)
chain: GUUAACGGUCAUAGGCCAUGGAAACUAGGAGCACCAUUUCGCUGCCAGUGAAGAAAUGAACAAAGAAAAUCUGGGCCAGGCAGGCAUCAAAAGAAAUAGUCUUGCGCUCAACCAGAAAGUCUGUAAUCAUUUUAAGGGUA

The variants in the series derive from B1. Nature of the series: self-cleavage, relative activity (ratio to wild type); higher = more cleavage; in vitro, sequencing; the parent is a self-cleaving ribozyme.
In the case of A23G A62U C121U, the self-cleavage turned out to be 1.43.
With A23U A52G A92G A111G, the self-cleavage amounted to 0.06.
On to A23G A55G A62G U108C, for which the self-cleavage came to 0.08.
Turning to A23G A60G A117G, the self-cleavage was 1.12.
The value for A23G A55G A68U A92G U102C was 1.71; that for A24G A59U A63U U108A was 0.06.
As for A23U A54G U120C, the self-cleavage amounted to 0.97.
The value for A23G A68G U103C A118G A125G was 0.03.
Turning to A23G A59G U70C A126G, the self-cleavage was 0.31.
The value for A23G A63G A64G was 0.75; that for A24G A27G A63C A66U was 1.02.
The value for A24C A55G A86G was 1.28; that for A23G A54G A118G U130C was 0.5.
The value for A24C A52C U70C was 0.62.
Take A24C U57A A69G A96U U108C: the self-cleavage came to 0.04.
The value for A24G A52G U100A was 0.58; that for A24G A30G U43A was 0.74; that for A23G A56G U57C A126G was 0.24.
As for A23G A56G A59G U87C A91G U100A, the figure is 0.11.
The value for A23G U39A U122A was 0.63.
On to A23G A66G A82G U97C, for which the self-cleavage was determined as 0.32.
Regarding A23G U49A A78U A92U U132C U133C, the self-cleavage is 0.28.
As for A23G U39C C85U, the figure is 1.09; as for A23G U38C A54G U57C U102C, 1.56.
The value for A23G G99U A118G was 0.52.
As for A23U A51G A95G A116U, the figure is 0.04.
For A24G A52G A90G U108A, the self-cleavage amounted to 0.04.
With A23G A60G A114U, the self-cleavage stood at 0.07.
With A24C A67G A110G, the self-cleavage is 0.17.
As for A24G A51G A60G U72C A91G, the figure is 0.22.
Consider A23U A60G A91G A95G C105U A118U U122C, for which the self-cleavage is 0.04.
As to A24G A96C U132C, the self-cleavage was 1.01.
A24G A82G U132A: the self-cleavage was 0.76.
A24G A91G U122C: the self-cleavage amounted to 0.54.
For A23G G41A A62U A114U, the self-cleavage worked out at 0.11.
As for A24G A67G A95G A118G, the figure is 1.86.
As for A24C U43A A52G A66G U102C, the self-cleavage came to 2.32.
The value for A23G U43C A54G A86G A95G A111G was 0.03.
As for A23U A30G A64G, the figure is 1.25; as for A23G G115U A118G, 0.18.
For A24G A52G A78G U124A A129U, the self-cleavage amounted to 0.29.
As for A24C A51G A89G A96G, the figure is 1.09.
As for A24G A55G A92G A96G U108C, the figure is 0.05.
The value for A24G A118G U122C A126G U130C was 0.21.
A24G A78G A89U A140G: the self-cleavage was 0.31.
The value for A24G A33G A82G was 0.74; that for A24C U57C U122C U131G A140G was 1.68.
For A24G A60G U102A A129U, the self-cleavage was 0.17.
As for A23G U108C U131C A140G, the figure is 0.01.
As for A23G A54G U72C, the figure is 0.06.
With A24G A59G U103C, the self-cleavage was found to be 0.49.
The value for A23G U43C A55G A96U U108C A111C was 0.02; that for A23G A92G A118G was 0.69; that for A23G A54G U57C was 0.92.
As for A23G A67G U87C A94G, the figure is 0.3; as for A23G A55U A95G, 0.79.
As for A24G A90G A96G U124A, the figure is 0.5; as for A23G A55G C88U U102C, 1.43; as for A24C U57C A92G, 0.68.
As for A23G U102C U131C, the self-cleavage was 1.29.
As for A23G A69G A82U G136C, the figure is 0.31; as for A24C A54C U103C A135G, 1.05.
The value for A23G U49A A86U A95G A96G was 1.5; that for A23G U131C G136A was 1; that for A24G A67G U131C U139C was 1.42.
As for A23G A89U U132C, the figure is 1.8.
In the case of A23G A67G U122C C128U, the self-cleavage came out at 0.67.
For A24C A67G A86G, the self-cleavage was determined as 1.27.
The value for A24C A118G U127A was 1.71.
The value for A23G U49C A51G G84A was 1.59; that for A23U A62G A118G A140G was 0.9.
Consider A24C U38C C109U, for which the self-cleavage was found to be 0.7.
As for A24G A96G A116G, the figure is 0.86; as for A23U U38C A67G A69G C107G U120C, 0.06.
The value for A23G U37C A51G A114C A118G was 0.
As for A23G U49A A134G, the self-cleavage turned out to be 1.08.
As for A24G A51G A62U, the figure is 1.45; as for A23G U37C A125G, 0.45; as for A24G A86U A114U, 0.2.
Regarding A23G U39C A117G, the self-cleavage came to 1.14.
As for A23G A59G U132A, the figure is 0.6; as for A23G U38C A59G A89G, 0.94; as for A24G A91G C105A, 0.03.
As for A23G A63G A90G U120C, the figure is 0.83; as for A24G A98U U132C, 1.79; as for A23G A68G A98G, 0.23.
As for A24G A56G U108C, the figure is 0.03.
In the case of A23U U100C A117G A140G, the self-cleavage was determined as 2.17.
As for A23G U72C U100A A126G, the self-cleavage came to 0.02.
The value for A24G A47G A60G A67G was 0.38.
As for A23G U49C U139A, the figure is 0.3; as for A23G A68G U70G A117G A129G, 0.14; as for A24G A52G A59G U100A, 0.32.
Regarding A23G A90G U122C, the self-cleavage was determined as 0.74.
The value for A23G U37C U49C A62G A111G was 0.02; that for A24G A64G U72A A94G A135U was 0.48; that for A23G A69G U70C was 0.45.
Turning to A23U A24G U108A, the self-cleavage was determined as 0.03.
Consider A24G A63G G79A A89G A95G U108C, for which the self-cleavage was 0.01.
As to A23U U57C U132C, the self-cleavage amounted to 1.4.
As for A23G U49A A51G U100C U108C, the figure is 0; as for A23G U43C U108C U133A, 0.02; as for A24G A98U C109U, 0.78.
For A23U U43C A59U, the self-cleavage is 0.89.
As for A23G U38C A67G U87C A91G, the figure is 0.58; as for A24G A36G A56U A94C, 1.15; as for A23G U37C G75U A95G G106A, 0.
As for A23U A51G A117U, the figure is 0.54; as for A24G A67G A78G, 0.09; as for A23G U70C A78U A95G U102C, 0.77.
The value for A23G A63G U127C A135G was 1.65; that for A23G U72C A91G was 0.28.
As for A23U U39C A54G U100G, the self-cleavage is 1.25.
As for A23G A66G A78G G84C, the figure is 0.08; as for A23U A30G A59G A66U A90G, 0.77.
As for A24G A54G A89U, the figure is 0.79; as for A24G A86G G104A A117G, 0.05.
The value for A23G A69G A134G was 1.32; that for A24G A30G G74A G115A A126G was 0.03.
Take A24G A110G A117G: the self-cleavage turned out to be 0.2.
As for A24C A69G A78G G83A, the figure is 0.4; as for A23U A67G A116G, 0.83; as for A24C A66G A67G, 0.61.
The value for A24G A52G A63G was 1.26.
For A23U A62U A96G, the self-cleavage worked out at 1.6.
Turning to A23G A78G U124C, the self-cleavage stood at 0.18.
The value for A24C A56G A68G was 1.14.
On to A23G G58A A59G U72C U100C U108C U124C, for which the self-cleavage was 0.
As for A23G A78C A90G, the figure is 0.36; as for A23G U26C C71U U102C, 0.39.
As for A23U U39C U49C A82G A126U, the figure is 0.29.
The value for A23G A59G A125U was 1.12.
Consider A23G U38C A68U A69G U120C, for which the self-cleavage amounted to 0.37.
The value for A23G A89G A110G A117G was 0.2.
As for A24G A52U U87C U122A, the figure is 1.09.
Turning to A24G A60G U124A U131C, the self-cleavage was 0.2.
Turning to A23G U37C U38C U131C A135U, the self-cleavage is 1.3.
The value for A24G A64G U130C was 0.92; that for A23G G75A U122C was 0.21; that for A23U C32A A54G C61A A98G U102A was 0.05.
The value for A23G A82U U122A was 0.22; that for A23U U43A C76U was 0.12.
As for A23G C40U U49A A110G, the figure is 0.17.
A24G A60G U87C: the self-cleavage was 1.23.
The value for A24G A30G A62G A92G was 1.02; that for A24G A56G A62G U87C C101U G115U was 0.
Regarding A23G A117G U131C, the self-cleavage worked out at 2.93.
The value for A23G C42U A47U A52G was 0.46; that for A24G A92G A95G U108A was 0.04.
As for A23G U37C U132C, the figure is 1.99; as for A23G A67G A118G, 1.38; as for A24G A59G A140G, 0.94.
Regarding A24G A60G A116G A126G U127A, the self-cleavage is 0.18.
As for A24G A82G U103A, the figure is 0.36; as for A24G A116G A140U, 0.48.
As for A24G A111U A116G, the figure is 0; as for A24G C32U U43G A52G, 0.57.
As for A23G C32U A89G A90G, the figure is 0.51.
For A24G A47U U49C A54G A91G A94G U124C A126G A140G, the self-cleavage came out at 0.04.
As for A23G A86G U100C, the figure is 1.47; as for A23G A82G A116U U124A, 0.
With A23G C42U A51G U57C A62U U108C A126G, the self-cleavage turned out to be 0.01.
In the case of A24G A27G U43C A55G G80A A125G, the self-cleavage turned out to be 0.03.
For the variant A24G A68G A78U U100C U127A, the self-cleavage is 1.7.
As for A24G A78C C81U, the figure is 0.21; as for A24G A64G A89G A96G, 1.55; as for A23G A98U U120C, 2.07.
